# This is one part of the list. The data scatter; read single values as rough.
# Key:
# Assay in all cases: mutation enrichment score (mutant vs wild-type peptide binding to bait); baits are purified protein domains named by gene / domain / UniProt id / residues; peptides come from disordered regions of human proteins; higher = mutation enhances binding relative to wild type
# [1] = biological target: Intersectin-1_SH3_1_Q15811_740_806; details: number of wild-type / mutant comparisons summed (bounds the score): 12; paper call: enhanced; wild-type window: …
# [2] = biological target: Intersectin-1_SH3_3_Q15811_1002_1060; details: wild-type window: …
# [3] = biological target: PDCD6IP_Alix-V-domain__Q8WUM4_360_702; details: number of wild-type / mutant comparisons summed (bounds the score): 10; paper call: enhanced; wild-type window: …
# [4] = biological target: T1, PIK3R1_SH3_1_P27986_6_78; details: number of wild-type / mutant comparisons summed (bounds the score): 27; paper call: enhanced; wild-type window: …
# T1 chain: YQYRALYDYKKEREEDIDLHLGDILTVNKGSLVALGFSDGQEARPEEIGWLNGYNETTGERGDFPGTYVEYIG
# [5] = biological target: Src_SH3__P12931_87_144; details: wild-type window: …
# [6] = biological target: Intersectin-1_SH3_2_Q15811_913_971; details: wild-type window: …
# [7] = biological target: KPNA4_Arm__O00629_68_487; details: wild-type window: …
# [8] = biological target: T2, SIN3A_PAH__Q96ST3_295_383; details: number of wild-type / mutant comparisons summed (bounds the score): 5; paper call: no_effect; wild-type window: …
# T2 chain: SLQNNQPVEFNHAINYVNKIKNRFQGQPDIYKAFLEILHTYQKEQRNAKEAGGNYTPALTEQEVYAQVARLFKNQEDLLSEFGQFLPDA
# [9] = biological target: NCK1_SH3_1_P16333_5_60; details: number of wild-type / mutant comparisons summed (bounds the score): 12; paper call: enhanced; wild-type window: …
# [10] = biological target: OXSR1___O95747_434_527; details: number of wild-type / mutant comparisons summed (bounds the score): 12; paper call: no_effect; wild-type window: …
# [11] = biological target: Intersectin-1_SH3_5_Q15811_1155_1214; details: number of wild-type / mutant comparisons summed (bounds the score): 6; paper call: no_effect; wild-type window: …
# [12] = number of wild-type / mutant comparisons summed (bounds the score): 12, paper call: enhanced
# [13] = number of wild-type / mutant comparisons summed (bounds the score): 6, paper call: no_effect
# [14] = number of wild-type / mutant comparisons summed (bounds the score): 12, paper call: no_effect
# [15] = number of wild-type / mutant comparisons summed (bounds the score): 18, paper call: diminished
# [16] = number of wild-type / mutant comparisons summed (bounds the score): 6, paper call: enhanced
# [17] = number of wild-type / mutant comparisons summed (bounds the score): 9, paper call: diminished
# Sequence of KPNA4_Arm__O00629_68_487 (chain, as listed by the source): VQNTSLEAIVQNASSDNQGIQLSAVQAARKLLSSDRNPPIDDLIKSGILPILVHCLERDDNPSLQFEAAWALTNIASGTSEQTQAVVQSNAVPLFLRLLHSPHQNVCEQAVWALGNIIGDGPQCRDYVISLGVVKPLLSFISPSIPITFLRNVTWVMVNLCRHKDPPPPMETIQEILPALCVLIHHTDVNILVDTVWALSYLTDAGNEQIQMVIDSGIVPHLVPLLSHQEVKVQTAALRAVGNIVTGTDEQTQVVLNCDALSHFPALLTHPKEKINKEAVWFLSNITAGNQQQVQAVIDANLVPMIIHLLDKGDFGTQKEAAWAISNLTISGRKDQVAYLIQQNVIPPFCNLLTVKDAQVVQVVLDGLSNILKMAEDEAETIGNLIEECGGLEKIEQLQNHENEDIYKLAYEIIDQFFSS
binder,measurement,setting,value
ESEPSEPSDPVLCREKLYPPLPPRWLEVINITKNTADLKWT [S15012L S15012L],mutation enrichment score,[1],12
same,mutation enrichment score,[2]; [12],10
same,mutation enrichment score,[3],9
same,mutation enrichment score,[4],19
same,mutation enrichment score,[5]; [12],9
VPEVDAQGEEMKEEFETYADVLWWGLITLATIGYGDKTPKT [A306V A306V],mutation enrichment score,[6]; [13],0
same,mutation enrichment score,"[7]; number of wild-type / mutant comparisons summed (bounds the score): 9, paper call: no_effect",1
DAQGEEMKEEFETYADALWWVLITLATIGYGDKTPKTWEGR [G310V G310V],mutation enrichment score,[6]; [13],1
same,mutation enrichment score,[8],1
GASLVLQVSYTPLPGAVPLFLPPTPLEPSPTLPDLDVVADT [P134L P134L],mutation enrichment score,[6]; [12],8.3
same,mutation enrichment score,[9],7.5
same,mutation enrichment score,[10],0
same,mutation enrichment score,[5]; [12],7
VGEHGLGQAPGHLSGLSVPCHLPSPPAGTLTCELKSCPYCT [P684H P684H],mutation enrichment score,[6]; [14],-4
same,mutation enrichment score,[5]; [15],-11
VGEHGLGQAPGHLSGLSVPCRLPSPPAGTLTCELKSCPYCT [P684R P684R],mutation enrichment score,[6]; [14],-4
same,mutation enrichment score,"[7]; number of wild-type / mutant comparisons summed (bounds the score): 27, paper call: no_effect",-5
same,mutation enrichment score,[5]; [15],-11
SDKPQDFQIRVQVIEGRQLPEVNIKPVVKVTAAGQTKRTRI [G234E G234E],mutation enrichment score,[2]; [16],6
same,mutation enrichment score,[5]; [16],6
EGKMDDEDPLVPGRDRGQELGVVLKVLDPSHHDIALAFYET [R638G R638G],mutation enrichment score,[2]; [13],-2
same,mutation enrichment score,[11],-5
PAASTAKPPPLPRSNTVASFFSLYQSSCQGQLHRSVSWADS [S1276F S1276F],mutation enrichment score,[2]; [13],-3
same,mutation enrichment score,[5]; [13],-2
MAPPSEETPLIPQRSCSLLSREAGALHV [T8R T8R],mutation enrichment score,[2]; [13],4
MCSLGLFPPPPPRGQVTLYEKNNELVTGSSYESPP [Q15K Q15K],mutation enrichment score,[2]; [13],-2.9
same,mutation enrichment score,[11],-4.8
same,mutation enrichment score,[5]; [13],-0.43
PKTDDSFSDVDCHSNQEDTGYKFRVLPQPTNLATPNTKRFK [C560Y C560Y],mutation enrichment score,[2]; [14],2
same,mutation enrichment score,[5]; [12],6
ETTEPVKVSEPPLPPGRVTLADVTRNTATIKWEKPESDGGS [V26232A V26232A],mutation enrichment score,[2]; [14],0
same,mutation enrichment score,[5]; [13],-0.82
QRASYAAGPASNYADPYRQLPYCPSVESPYSKSGPALPPEG [Q507P Q507P],mutation enrichment score,[2]; [14],3
same,mutation enrichment score,[5]; [12],7
ESAEEAWGTEEAPAPAPARSVLQLRLAESQARLDHDVAAAV [L108V L108V],mutation enrichment score,[11],-2
LSTLALLYGPKIVPRELAEARGVVMSFYVCLGLTLGSACST [T449R T449R],mutation enrichment score,[11],1.7
EEEDEEHSGNDSDGSEPSEKCTRLEEEIVEQTMRRRQRREW [R157C R157C],mutation enrichment score,[7]; [17],-7
VGSPQPSSSGGEKRRWNEEPSESPAQVQQESSQAGPPSEGA [W269S W269S],mutation enrichment score,[7]; [17],-6
HIRYNPLQDEWVLVSAHRMKLPWQGQVEPQLLKTVPRHDPL [R51L R51L],mutation enrichment score,[7]; [17],-6

# Reference: the supplement of paper PMC11369174, “Proteome-scale characterisation of motif-based interactome rewiring by disease mutations” (Molecular Systems Biology, 2024)
